Data on 5 molecules can be found in patent publication US9809808B2, “Antimicrobial agents” (KATHOLIEKE UNIVERSITEIT LEUVEN K.U. LEUVEN R&D, priority 2008, dated 2017).

In assay [1] the test system is P. aeruginosa PAO1p cells. Briefly: Antibacterial activity of phiKZgp144 variants with different polycationic peptide stretches (colony count after 1 hour). As to conditions: 100 μg/ml undialyzed protein, room temperature.
A further assay relates to P. aeruginosa PAO1p. As to the kind of experiment: Antibacterial activity of P2gp09 and PKP2gp09 with and without EDTA (30 minutes, colony count). Type of assay: cell-based, Pseudomonas aeruginosa. Particulars: for relative inactivation in logarithmic units (log10N0/Ni): 30 minutes.

B1: K8_pET32b: SEQ ID NO: 48: phiKZgp144 with N-terminal peptide stretch KKKKKKKK (SEQ ID NO: 13) (protein)
chain: AMGSKKKKKKKKKVLRKGDRGDEVCQLQTLLNLCGYDVGKPDGIFGNNTFNQVVKFQKDNCLDSDGIVGKNTWAELFSKYSPPIPYKTIPMPTANKSRAAATPVMNAVENATGVRSQLLLTFASIESAFDYEIKAKTSSATGWFQFLTGTWKTMIENYGMKYGVLTDPTGALRKDPRISALMGAELIKENMNILRPVLKREPTDTDLYLAHFFGPGAARRFLTTGQNELAATHFPKEAQANPSIFYNKDGSPKTIQEVYNLMDGKVAAHRK
modifications: K8_pET32b
In the case of B1, in assay [1], the “Reduction [%] (relative inactivation)” value is reported as 99%.

B2: R9_pET32b: SEQ ID NO: 47: phiKZgp144 with N-terminal peptide stretch RRRRRRRRR (SEQ ID NO: 12) (protein)
chain: AMGSRRRRRRRRRKVLRKGDRGDEVCQLQTLLNLCGYDVGKPDGIFGNNTFNQVVKFQKDNCLDSDGIVGKNTWAELFSKYSPPIPYKTIPMPTANKSRAAATPVMNAVENATGVRSQLLLTFASIESAFDYEIKAKTSSATGWFQFLTGTWKTMIENYGMKYGVLTDPTGALRKDPRISALMGAELIKENMNILRPVLKREPTDTDLYLAHFFGPGAARRFLTTGQNELAATHFPKEAQANPSIFYNKDGSPKTIQEVYNLMDGKVAAHRK
modifications: R9_pET32b
Take B2: the “Reduction [%] (relative inactivation)” value in assay [1] is on record as 99%.

B3: KRK_6_pET32b: SEQ ID NO: 44: phiKZgp144 with N-terminal peptide stretch KRKKRK (SEQ ID NO: 10) (protein)
chain: AMGSKRKKRKKVLRKGDRGDEVCQLQTLLNLCGYDVGKPDGIFGNNTFNQVVKFQKDNCLDSDGIVGKNTWAELFSKYSPPIPYKTIPMPTANKSRAAATPVMNAVENATGVRSQLLLTFASIESAFDYEIKAKTSSATGWFQFLTGTWKTMIENYGMKYGVLTDPTGALRKDPRISALMGAELIKENMNILRPVLKREPTDTDLYLAHFFGPGAARRFLTTGQNELAATHFPKEAQANPSIFYNKDGSPKTIQEVYNLMDGKVAAHRK
modifications: KRK_6_pET32b
As for B3, the “Reduction [%] (relative inactivation)” value in assay [1] is listed as 99.9%.

B4: pK2KZ144_pET32b_mod3: SEQ ID NO: 49: phiKZgp144 with 38-residue N-terminal peptide stretch with linker (SEQ ID NO: 28) (protein)
chain: AMGSKRKKRKKRKRGSGSGKRKKRKKRKRGSGSGKRKKRKKRKKVLRKGDRGDEVCQLQTLLNLCGYDVGKPDGIFGNNTFNQVVKFQKDNCLDSDGIVGKNTWAELFSKYSPPIPYKTIPMPTANKSRAAATPVMNAVENATGVRSQLLLTFASIESAFDYEIKAKTSSATGWFQFLTGTWKTMIENYGMKYGVLTDPTGALRKDPRISALMGAELIKENMNILRPVLKREPTDTDLYLAHFFGPGAARRFLTTGQNELAATHFPKEAQANPSIFYNKDGSPKTIQEVYNLMDGKVAAHRK
modifications: pK2KZ144_pET32b_mod3
In the case of B4, the “Reduction [%] (relative inactivation)” value in assay [1] is given as 99.9%.

B5: PKP2gp09: SEQ ID NO: 57: P2gp09 (SEQ ID NO: 9) with N-terminal peptide stretch KRKKRKKRK (SEQ ID NO: 11) (protein)
chain: MGSKRKKRKKRKPVINTHQNIAAFLDMLAVSEGTANHPLTKNRGYDVIVTGLDGKPEIFTDYSDHPFAHGRPAKVFNRRGEKSTASGRYQQLYLFWPHYRKQLALPDFSPLSQDRLAIQLIRERGALDDIRAGRIERAISRCRNIWASLPGAGYGQREHSLEKLVTVWRTAGGVPA
modifications: PKP2gp09
With B5, the “Δ, difference of activity between P2gp09 and PKP2gp09 samples” value in the assay on P. aeruginosa PAO1p (1.315 μM + 0.5 mM EDTA) is 0.332 logarithmic units; in the assay with P. aeruginosa PAO1p (1.315 μM, no EDTA) it was −0.038 logarithmic units. Also, the “relative inactivation in logarithmic units (log10N0/Ni)” value in the assay on P. aeruginosa PAO1p (1.315 μM endolysin + 0.5 mM EDTA) is listed as 3.172 +/− 0.056 logarithmic units; in the assay on P. aeruginosa PAO1p (1.315 μM endolysin, no EDTA) it was 0.326 +/− 0.069 logarithmic units.
